Article PMC12136788
Some of the results follow.

B1: chr20:57484439:57484440:+_ENSG00000087460_ENST00000306090|hu_hu|FALSE|FALSE (ssRNA)
RNA: GGGAGUUCUACAGUCCGACGAUCGCCACCCACGUCAAACAUGUGGAAGUUGACUUUGUCCACCUGGAACUUGGUCUCAAAGAUUCCAGAAGUCAGGACACGGCAGCGAAGCAGGUCCUGAUCGCUCGGCACAUAGUCAGCCUGCAACAGAGGAUUGAGCAUCA
B2: chr13:77595817:77595818:-_ENSG00000005812_ENST00000355619|hu_mus|FALSE|FALSE (ssRNA)
RNA: GGGAGUUCUACAGUCCGACGAUCACAUCGCCACAAGUCAGGCAUGUGAAAUACCUGAUUCCAAUUCCGGCACACUUGGGAAGCAUGAGCCCGGUCAAGAAGAGGCAAAUACUUAAAAACAUGGAGGACGAUGUCCUGCAGGAGCAACAGAGGAUUGAGCAUCA
B3: chr6:50805741:50805742:+_ENSG00000008196_ENST00000393655|hu_mus|FALSE|FALSE (ssRNA)
RNA: GGGAGUUCUACAGUCCGACGAUCCAGUGAGGUGAGUAACGUGACAUUUGCUGCUUUGCGCCUGCCCGCGGGUAAAUUCAAACCGAUUUUUUCUAGCCUUUCUCUCAAGGAUCUCCCCCCAUUUUUCGAUUUGGCUCUUCUGAGCAACAGAGGAUUGAGCAUCA
B4: chr7:135832278:135832279:+_ENSMUSG00000042105_ENSMUST00000118605|mus_hu|motif|central (ssRNA)
RNA: GGGAGUUCUACAGUCCGACGAUCAAGCUGCUCUAUUCGUUUUUGUUUUCCCGCCACUGGGGCAAGCCCUCCUUCCACACGGUGAAGACGAAAAUUGCCAGCACCACAUGAAGCCCGACCACUGCAACAAUGGUCGCAUAAAAGCAACAGAGGAUUGAGCAUCA
B5: chr8:110352747:110352748:+_ENSG00000120533_ENST00000521662|hu_hu|motif|central (ssRNA)
RNA: GGGAGUUCUACAGUCCGACGAUCCAGGGCUCUGCCUUUUGGAGUGAUUUCAGCCACCAAGUCAUCAACAGUAACGUGUUCGGGUCCUUUUUCUUUAAUUACCUCUUUACAGUGUGCCUUCAACUGAUCCUUCCAGCCACAUUCCAACAGAGGAUUGAGCAUCA
B6: chr4:148551591:148551592:-_ENSMUSG00000063077_ENSMUST00000060537|mus_hu|mus_mus_mus_hu_False|48_108 (ssRNA)
RNA: GGGAGUUCUACAGUCCGACGAUCACCUUACAAAAUUAAAUAUCCCUGUAAAUUAGACAAUAAGCAGCAGGCAACAAAGUCUUUGCUUUGAAAUAUGUGCCAGGAAAAGUCAUCUUGUUUUUAGAUCUCAAGAGACAGUUCACACAACAGAGGAUUGAGCAUCA

Biological target: T1, UNK ZnF1-3 (human, UniProt Q9C0B0 31-174)
T1 sequence: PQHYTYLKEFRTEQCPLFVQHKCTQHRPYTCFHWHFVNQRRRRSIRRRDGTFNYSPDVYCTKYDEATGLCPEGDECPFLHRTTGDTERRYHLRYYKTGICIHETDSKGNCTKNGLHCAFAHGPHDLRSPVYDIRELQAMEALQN
Experiment: nsRBNS (natural sequence RNA bind-n-seq); RBNS binding buffer (assumed for nsRBNS): 25 mM Tris pH 7.5, 150 mM KCl, 3 mM MgCl2, 0.01% Triton X-100, 500 ug/ml BSA, 20 U/ml SUPERase-In, 4 C; UNK is unkempt and MSI1 is Musashi-1; names of the RNAs are library labels; protein concentration not given here; high values mean tight binding

Row | Binder | binding signal
1 | B1 | 0.902 enrichment R
2 | B2 | 1.55 enrichment R
3 | B3 | 1.01 enrichment R
4 | B4 | 1.26 enrichment R
5 | B5 | 0.74 enrichment R
6 | B6 | 1.04 enrichment R
